Read counts are not given, so values of variants with three or more changes are uncertain.

The labels stand for the following.
B1: OR4K15 (parent)
chain: GUUAACGGUCAUAGGCCAUGGAAACUAGGAGCACCAUUUCGCUGCCAGUGAAGAAAUGAACAAAGAAAAUCUGGGCCAGGCAGGCAUCAAAAGAAAUAGUCUUGCGCUCAACCAGAAAGUCUGUAAUCAUUUUAAGGGUA

Variants of B1 are the subject of this series. The series is described as follows: self-cleavage, relative activity (ratio to wild type); higher = more cleavage; in vitro, sequencing; the parent is a self-cleaving ribozyme.
Turning to A96G A114G U130C, the self-cleavage was 0.27.
Next, A96G U102C U132C: 2.08; A92C U130C A134G: 1.4.
Regarding A96G A111G A114G A129G, the self-cleavage turned out to be 0.
Next, A91G A116G U131C: 0.27; A110G U131C A134C: 0.05.
Next, U102C C113U U122C: 0.02.
Next, G119C U120C A125U: 1.2; A90G A92G A110G U127C: 0.03; U87C A94G G106A C112U: 0.
Take U87C A94G A98U U122C A140G: the self-cleavage amounted to 1.27.
To A118G U127C U131C belongs 0.76.
Turning to U103C U133C U139G, the self-cleavage turned out to be 1.57.
Next, A89G U100C A118G: 1.57; U108C A110C U139A: 0.01; A91U U100C A116G: 2.69.
Consider A95G A96G A116U, for which the self-cleavage came out at 0.35.
Next, U103C A110U A111G U132C: 0.01; A96G A125G A134U: 0.75; A89G U97C U124A: 0.8.
Next, A92C A98G U132C: 0.26.
With U97C A110G A134G, the self-cleavage is 0.15.
In the case of A111G A117G U132C, the self-cleavage came to 0.01.
To G104A A110G U132C U133A belongs 0.01; to U103C A117G U132A U139C, 0.88; to U103C A110G U131C U139A, 0.11.
Consider A89U U108A U122G, for which the self-cleavage turned out to be 0.01.
As for A94G A116G A125G, the self-cleavage was 0.54.
In the case of U102C A110G A117G, the self-cleavage was 0.13.
For the variant A89G C109U A118U, the self-cleavage stood at 0.1.
Next, A96G A114U A118G: 0.02; A95G A126G U130C: 1.44; A98U U102C A111G A118G: 0.01.
With G115A A116G A118G G123A, the self-cleavage was determined as 0.01.
To A92U U100C A129C belongs 1.94.
As for A92G A98U U139C, the self-cleavage worked out at 1.49.
To A94G A116G A134G U139C belongs 1.43; to C107G U122C U127C, 0.01.
In the case of U100C U127C U131C, the self-cleavage was 2.58.
Next, A90G A96G A111G U131C: 0; A94G A117G U124A: 1.72; A86U U127C U131C: 2.19.
With A90G U97A U132C, the self-cleavage stood at 0.97.
For the variant U103C A110G U122C, the self-cleavage was determined as 0.03.
For the variant G84U U87A A90G A125U G138A, the self-cleavage was found to be 0.4.
A92U A94U U102C: the self-cleavage worked out at 2.04.
In the case of A92G A117G U122C, the self-cleavage was 1.64.
To A91G U108C A118U belongs 0.01; to A86G G99A U103C, 0.04; to A86G A90G U127C, 0.4.
In the case of A111U U127C U133C, the self-cleavage stood at 0.09.
Consider A94G A110G U133C, for which the self-cleavage was 0.
Next, U103C A111U U122A: 0.07.
To U87C A117G U127A belongs 2.43; to A89G A96G A126G, 0.64.
To A95G G106A A116G A117U belongs 0; to A96G U108C U124A, 0.01.
For the variant U103A C105A U108C U122C, the self-cleavage came out at 0.
For C88U A125G U132C, the self-cleavage is 0.37.
Regarding A92G U102C G106A C128U, the self-cleavage turned out to be 0.01.
To A86G A89C U122C belongs 0.51.
Next, A91G U102C U131C: 2.02; A89G A92G U130C: 0.59.
To U87C A111G U130C belongs 0; to G119A U127C U130C, 0.5; to U102C A111U A116G, 0.01.
For the variant U87C A94U U132C, the self-cleavage was determined as 1.29.
A91G A92G U131C: the self-cleavage amounted to 0.08.
Next, A86G U108C A110G A126G: 0.
For the variant A117G U124C U131C, the self-cleavage came to 1.5.
On to A92U A110C U122C, for which the self-cleavage turned out to be 0.16.
As for G106A A111G U120A, the self-cleavage is 0.01.
In the case of U97A A116G U133C, the self-cleavage amounted to 0.81.
On to A86G A90G U131C, for which the self-cleavage amounted to 0.82.
Next, A92G U102C A114G A118G: 1.06; A90G A96G U97C A114G: 0.05; A96U A114U A116G U127G A134G: 0.
Consider U102C A117G U130C, for which the self-cleavage turned out to be 2.46.
Next, U87A A94U G136A: 2.02; A86G A91G A111C: 0.02; A95G A116G A125G: 0.69.
As to A117G U122C A135U U139A, the self-cleavage is 0.99.
For the variant A91G A116G U122C, the self-cleavage amounted to 0.24.
To U100C U108C U122C belongs 0.
As to A111G A118G C121A, the self-cleavage stood at 0.01.
To A92G A94G G99A belongs 0.86; to A110U A111G A126G, 0; to A94G A118G U130C, 1.71.
As for A89G A90G A95G, the self-cleavage was found to be 1.4.
As to A95G A110G A116G U122C, the self-cleavage is 0.05.
Take A118G U122C U131C: the self-cleavage stood at 0.86.
Next, G99A A114G U130C: 0.01; U87A A92G A117G: 2.22; U102C U108C U130C: 0.01.
Next, A92U U108C A129G: 0.01; A117G A126G U131C: 0.48.
To U87A A96G A118G belongs 1.2; to A91G A116G A118G, 0.13.
With A89G A98G G138A, the self-cleavage was determined as 0.61.
To A86C A114U U131C belongs 0.01; to A89U A118G U130C U132C, 0.48; to U87C U103C U132G, 0.32.
To A94G A116G A126G belongs 0.34.
To A91G U103C A110G U132C belongs 0.04; to U87C U122C A140G, 0.88; to A95U A116U U131C, 0.17.
In the case of U97C A114U A140U, the self-cleavage was 0.01.
In the case of A111U C113U C121A, the self-cleavage is 0.06.
As for G115U A117G U132C, the self-cleavage was 0.05.
As to A98G U108C U133A, the self-cleavage was 0.01.
For A92G A116C A118G, the self-cleavage stood at 0.13.
Next, A89U U108C U127C U130C: 0.
In the case of A96U A111U U127C, the self-cleavage is 0.04.
Regarding A90G A116G U127C, the self-cleavage came out at 0.17.
As for A92G A118G U122C, the self-cleavage was found to be 0.98.
To A96G U108C A110G belongs 0.01; to A95G A111G U139A, 0.04; to U120C A126C A140G, 0.21.
Next, A91U U100C U122C: 2.35; A94U G106U U139C: 0.01.
Consider A96U A117G G138A, for which the self-cleavage worked out at 0.78.
To C105U A114G A118G U133C belongs 0.01; to A95G U139C A140G, 2.41; to A86G A92G A94G, 0.99.
To A92G A95G A114U belongs 0.08; to U97C A110U A111G A116G, 0.01; to A96G A117G A118G A135G, 1.57.
To A110U U122C U131A belongs 0.49; to A116G U127C U132C, 0.09.
Take A95G A111U A116U: the self-cleavage came to 0.07.
On to A95U A96U U108C, for which the self-cleavage is 0.01.
Next, U97C U100C U122C U131C: 1.66; A96G U108C U120C G137A U139C: 0.

(Values after the RNAGym collection of RNA variant scans (doi:10.7554/elife.90254).)
